# Reference: the supplement of paper PMC4466236
# Over roughly 33,000 sequences, “E-score (dimensionless, -0.5 to 0.5)” has its median near -0.058; the highest 2% begin near 0.35. The list shows a part of the results.
# Test system: MvaT
# Assay: PBM 8-mer E-score (mean of HK and ME arrays) (E-score (dimensionless, -0.5 to 0.5)); higher = stronger relative binding preference; most listed sequences are background and not binding sites
# Procedure, shortened: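 Full-length P. aeruginosa MvaT, with glutathione S-transferase fused to its N-terminus (cloned into pTH6838 by isothermal assembly), was tested by protein binding microarray using a previously described protocol. Two universal double-stranded 60-mer arrays (ME and HK) were used, each with a constant 25-mer primer region and a variable 35-mer region covering all 8-mers. The rank-based 8-mer E-score (-0.5 to 0.5) is the mean of the two arrays, parsed with a custom Python script.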
row,Sequence,PBM 8-mer E-score
1,TGGGCCCA,-0.248
2,TAACCAAA,0.131
3,GTACACAC,-0.0332
4,ACTACCTG,-0.0409
5,GAGTGGCA,-0.194
6,AGTCTCAA,0.0758
7,CAGCCACG,-0.218
8,ACAAGGCA,-0.0876
9,CCTTGGAA,-0.119
10,GTGGCGGA,-0.0799
11,AGGATACA,0.0408
12,AAACTCTT,0.15
13,GACAAGGA,-0.159
14,CTAGTGCC,-0.309
15,CCTGAGCA,-0.239
16,ACTACCAC,0.175
17,AGAAATCC,-0.0423
18,AGGGATTA,-0.0207
19,AATCCGTC,-0.0357
20,CGAAGAAG,-0.255
21,ACCCAAGC,-0.128
22,GAACGGGA,-0.0641

row,Sequence,PBM 8-mer E-score
1,CCTTTCTC,-0.202
2,CGTACCGA,-0.282
3,CAGTCATC,-0.118
4,CCACCTGC,-0.224
5,ATATATTC,0.454
6,ACAAACAA,0.171
7,CTGCATCC,-0.172
8,GTCCTTAA,-0.0237
9,AATCCGGC,0.0183
10,CCTAATTA,0.358
11,CCCCCATC,-0.234
12,ATAGTCTA,0.277
13,TCCGTCCA,-0.2
14,TAGGTCAA,0.0983
15,CGTAATAG,0.173
16,CGTCATGA,-0.165
17,ATACCGAG,-1.06e-05
18,ATTTGCCC,0.0401
19,ACTGGTAC,-0.138
20,CTCATTTC,-0.0714
21,CGTGAACA,0.00312
22,AATTAGGC,0.243

row,Sequence,PBM 8-mer E-score
1,ATATGTGC,0.326
2,ACCCGAAA,-0.065
3,ACGAGGTC,-0.148
4,GGGTATTA,0.288
5,GGCCGTAC,-0.216
6,CATAGAGG,-0.186
7,GCGGGTAA,0.131
8,AGCATTAT,0.245
9,AGGAATGC,-0.00138
10,AATCCGAG,-0.00394
11,AACAGCAC,-0.103
12,GCTGAGGA,-0.193
13,ACGGTTAG,-0.0976
14,TAACAGCA,0.251
15,ACGTACCA,-0.0602
16,AATCTCTC,-0.0667
17,GCATCGGA,-0.11
18,CGGATTCA,0.069
19,GGCCTTGA,-0.287
20,TCTTTCAA,0.206
21,CTTTGACC,-0.131
22,AGTCTTTG,0.155

row,Sequence,PBM 8-mer E-score
1,GTAGTGGA,-0.105
2,ACCACTCG,-0.182
3,CCCTCCTC,-0.351
4,ACCCTAGC,-0.142
5,ATACATAC,0.319
6,ATAGCAGC,0.0386
7,AAATAAGT,0.38
8,GATCGAAC,-0.0964
9,CAAGTTTA,0.206
10,GCGGTTAC,-0.192
11,CCCAGTGC,-0.173
12,CGAACGAA,-0.129
13,AGCTCTCA,-0.247
14,GTTTTGCA,0.077
15,AGTTTCTG,0.074
16,GAGCTTCA,-0.283
17,ACGAATTG,0.15
18,GTTTAGTA,0.261
19,AAGCTCTG,-0.304
20,CTAAGCAA,0.0197
